# Reference: a collection of fitness landscapes (doi:10.1016/j.celrep.2020.107928)
# In all, about 81,000 sequences were measured (“one-hybrid fitness for binding NBS DNA”: median about -0.1, highest 2% from about 0.36 on). This is one part of the list.
# B1: Caulobacter ParB omega fusion; a variant is named by its letters at X, in order, B8GW30 (parent)
# chain: MESVVVGEPGMSEGRRGLGRGLSALLGEVDAAPAQAPGEQLGGSREAPIEILQRNPDQPRRTFREEDLEDLSNSIREKGVLQPILVRPSPDTAGEYQIVAGERAWRAAQRAGLKTVPIMVRELDDLAVLEIGIIENVQRADLNVLEEALSYKVLMEKFERTQENIAQTIGKSXSHVANXMRLLXLPDEVQSYLVSGELTAXHARAIAAAADPVALAKQIIEGGLSVRETEALARKAPNLSAGKSKGGRPPRVKDTDTQALESDLSSVLGLDVSIDHRGSTGTLTITYATLEQLDDLCNRLTRGI
# Variants of: B1
# Test: one-hybrid fitness for binding NBS DNA (the Noc-binding site; scaled: cognate 1, non-cognate 0); higher = stronger binding
# Settings: with NBS DNA site
# How it was run: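 On M9-minus-histidine containing 0.1 mM IPTG and 5 mM 3-AT, E. coli USO cells with a HIS3 reporter, site 19 bp from the promoter, grew 48 hours at 37°C to select Caulobacter ParB libraries randomised at four specificity codons. Plasmids from before and after were Illumina-sequenced, with three replicate libraries pooled and variants under 10 reads left out. Fitness is the log change in variant-to-wild-type read ratio, rescaled against cognate and non-cognate.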
row,Variant,one-hybrid fitness for binding NBS DNA
1,PQRR,0.212
2,YEYR,≤ 0.2
3,ICVT,≤ 0.2
4,NLHY,≤ 0.2
5,QKKW,0.266
6,VQGF,≤ 0.2
7,QCNP,≤ 0.2
8,VNQR,≤ 0.2
9,GLRP,≤ 0.2
10,VVRW,≤ 0.2
11,VTNT,≤ 0.2
12,INRE,≤ 0.2
13,RCII,≤ 0.2
14,RERR,≤ 0.2
15,PGKF,≤ 0.2
16,WMYG,≤ 0.2
17,KQAL,≤ 0.2
18,GPPN,≤ 0.2
19,RFDV,≤ 0.2
20,ITRA,≤ 0.2
21,RKCW,≤ 0.2
22,PTRQ,≤ 0.2
23,QESR,≤ 0.2
24,RYQN,≤ 0.2
25,LNDN,≤ 0.2
26,DVSE,≤ 0.2

row,Variant,one-hybrid fitness for binding NBS DNA
1,TIFK,≤ 0.2
2,AEHR,≤ 0.2
3,WGGS,≤ 0.2
4,GPIE,≤ 0.2
5,RMTS,0.433
6,IYKM,≤ 0.2
7,SQNC,≤ 0.2
8,SCCG,≤ 0.2
9,NGNA,≤ 0.2
10,RLTK,≤ 0.2
11,QRFD,≤ 0.2
12,DEPW,≤ 0.2
13,VMAH,≤ 0.2
14,LRIA,≤ 0.2
15,VSMP,≤ 0.2
16,CCPG,≤ 0.2
17,SQQN,≤ 0.2
18,RTPM,≤ 0.2
19,FMDL,≤ 0.2
20,FNRV,≤ 0.2
21,KNHT,≤ 0.2
22,NDRG,≤ 0.2
23,HNRT,0.27
24,FAAV,≤ 0.2
25,NSSA,≤ 0.2
26,TNWR,≤ 0.2

row,Variant,one-hybrid fitness for binding NBS DNA
1,YRTA,≤ 0.2
2,TMRY,≤ 0.2
3,CQNS,≤ 0.2
4,VMQG,≤ 0.2
5,RECR,≤ 0.2
6,CDLS,≤ 0.2
7,QACY,≤ 0.2
8,SLPH,≤ 0.2
9,PLSC,≤ 0.2
10,RCAL,≤ 0.2
11,PCTQ,≤ 0.2
12,PMPS,≤ 0.2
13,SWPR,≤ 0.2
14,DTPC,≤ 0.2
15,PAMC,≤ 0.2
16,TPNR,≤ 0.2
17,IHRT,≤ 0.2
18,ITVG,≤ 0.2
19,TLIW,≤ 0.2
20,SYVS,≤ 0.2
21,LDTW,≤ 0.2
22,GSMY,≤ 0.2
23,TDHL,≤ 0.2
24,KRGF,≤ 0.2
25,SKDT,≤ 0.2
26,QHNL,≤ 0.2

row,Variant,one-hybrid fitness for binding NBS DNA
1,MKTR,≤ 0.2
2,GMCE,≤ 0.2
3,ACCP,≤ 0.2
4,IRKW,≤ 0.2
5,RPCI,≤ 0.2
6,RNQN,≤ 0.2
7,NVWL,≤ 0.2
8,HNTM,≤ 0.2
9,TACC,≤ 0.2
10,PNKR,≤ 0.2
11,PNDH,≤ 0.2
12,FVQC,≤ 0.2
13,QQVL,≤ 0.2
14,RPRE,≤ 0.2
15,AGSL,≤ 0.2
16,CLVM,≤ 0.2
17,HFKK,≤ 0.2
18,TSAA,≤ 0.2
19,QHED,≤ 0.2
20,DDAT,≤ 0.2
21,RSQI,≤ 0.2
22,QNSL,≤ 0.2
23,HGQW,≤ 0.2
24,TLVP,≤ 0.2
25,LLFA,≤ 0.2
26,PNPS,≤ 0.2

row,Variant,one-hybrid fitness for binding NBS DNA
1,CYYG,≤ 0.2
2,GTKA,≤ 0.2
3,ESHS,≤ 0.2
4,FRWL,≤ 0.2
5,LMSL,≤ 0.2
6,RMKV,0.235
7,QMVS,0.282
8,DACT,≤ 0.2
9,AMTV,≤ 0.2
10,ETGR,≤ 0.2
11,TTTW,≤ 0.2
12,DRYK,≤ 0.2
13,SADH,≤ 0.2
14,RYGM,≤ 0.2
15,PINP,≤ 0.2
16,SSFT,≤ 0.2
17,RFLS,≤ 0.2
18,HQQY,≤ 0.2
19,LGRE,≤ 0.2
20,KAAG,≤ 0.2
21,LFPG,≤ 0.2
22,AAPP,≤ 0.2
23,DDLS,≤ 0.2
24,DFLT,≤ 0.2
25,DRRP,≤ 0.2
26,ITQG,≤ 0.2

row,Variant,one-hybrid fitness for binding NBS DNA
1,YNRP,≤ 0.2
2,HAGT,≤ 0.2
3,RMPR,≤ 0.2
4,RITP,≤ 0.2
5,NWPR,≤ 0.2
6,TSVG,≤ 0.2
7,QKKI,0.337
8,RMLR,0.431
9,LWTE,≤ 0.2
10,MVEG,≤ 0.2
11,EGVC,≤ 0.2
12,RWWM,≤ 0.2
13,LYAM,≤ 0.2
14,YRMS,≤ 0.2
15,SVID,≤ 0.2
16,TDTW,≤ 0.2
17,QQIK,≤ 0.2
18,QAHG,≤ 0.2
19,RYCT,0.372
20,KVEY,≤ 0.2
21,FTHK,≤ 0.2
22,QDYT,≤ 0.2
23,EDQS,≤ 0.2
